Data: PubChem BioAssay AID1768 (National Center for Advancing Translational Sciences (NCATS), 2009)
In all, about 270,000 compounds went through this assay and about 620 (0.23%) were called active. Inconclusive means that the source gave no clear call. Such entries were picked first, then a sample of the others. Calls follow the shape of the dose curve; as a rule, active = well fitted inhibition curve with a large enough effect in the polarisation, with a control signal flat (not every such curve was filed as active); inconclusive = small, poorly fitted or top-dose-only effect, or effect the other way, or a change in a side signal; inactive = no such curve, though single readings can be large or run the other way; the % refers to the polarisation. Potencies beside an inconclusive call are fits to weak or partial responses and may not hold up. “Side channel” marks fits to a control or component signal instead of the main read-out.

molecular target: Menin (Homo sapiens) (UniProt O00255); experiment: qHTS Assay for Inhibitors Targeting the Menin-MLL Interaction in MLL Related Leukemias: Competition With Texas Red Labeled MLL-derived Mutant Peptide; settings: fluorescence polarization; series mostly up to 61.6 µM
Potency is read from the fitted curve at half-maximal effect; tags tell the direction and shape of the fitted curve or compound fluorescence and quenching.

Chain of UniProt O00255 (O00255 whole entry, looked up): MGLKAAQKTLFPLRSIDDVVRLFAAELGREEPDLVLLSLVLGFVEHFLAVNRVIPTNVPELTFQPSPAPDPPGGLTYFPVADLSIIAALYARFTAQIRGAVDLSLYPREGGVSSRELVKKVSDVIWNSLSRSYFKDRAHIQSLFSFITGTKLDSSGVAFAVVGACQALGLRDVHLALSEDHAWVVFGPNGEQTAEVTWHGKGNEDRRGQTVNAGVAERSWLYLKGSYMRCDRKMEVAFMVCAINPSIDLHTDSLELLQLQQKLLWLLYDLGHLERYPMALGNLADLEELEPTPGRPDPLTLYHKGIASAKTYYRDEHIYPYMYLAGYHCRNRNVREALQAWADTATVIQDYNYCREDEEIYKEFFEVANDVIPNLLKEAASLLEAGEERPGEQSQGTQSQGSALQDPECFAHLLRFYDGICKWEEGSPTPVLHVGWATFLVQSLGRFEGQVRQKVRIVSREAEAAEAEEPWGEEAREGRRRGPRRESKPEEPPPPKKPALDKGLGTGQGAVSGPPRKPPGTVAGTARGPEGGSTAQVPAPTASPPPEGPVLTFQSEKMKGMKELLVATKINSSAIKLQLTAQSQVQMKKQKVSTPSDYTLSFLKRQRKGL

SMILES | Potency
COc1ccc2cc[nH]c2c1 | inconclusive: 25.1 µM [quencher, side channel, single point]
COc1cc(NC(=O)c2cccs2)ccc1NC(=O)c1cc2ccccc2o1 | inconclusive: 11.2 µM [inhibitor, partial curve]
CN(C)C1(CNCC(O)c2ccccc2)CCCCC1 (centres undefined) | inactive
Cn1c(C(=O)Nc2ccc3c(c2)OCO3)cc2sccc21 | inconclusive: 25.1 µM [quencher, side channel, single point]
CCN(CC)Cc1cc(O)c(CN(CC)CC)cc1O | inactive
CC(NS(=O)(=O)c1ccc(OCC(=O)NCc2ccncc2)cc1)c1ccccc1 (centres undefined) | inconclusive: 7.08 µM [quencher, side channel, single point]
COCCCN1C(=O)C(=O)/C(=C(/O)c2ccc(S(=O)(=O)N3CCCCC3)cc2)C1c1ccc(O)cc1 (centres undefined) | inconclusive: 15.8 µM [quencher, side channel, single point]
COc1ccc(NC(=O)/C=C/c2cc(Br)ccc2OC)cc1 | inconclusive: 17.8 µM [quencher, side channel, partial curve]
O=C1N/C(=N/N=C/c2ccccc2)SC1(c1ccccc1)c1ccccc1 | inconclusive: 6.31 µM [quencher, side channel, single point]
CN(C)S(=O)(=O)c1cccc(NC(=O)c2ccc(COc3ccccc3)cc2)c1 | inconclusive: 12.6 µM [quencher, partial curve]
O=[N+]([O-])c1cc(/C=N/Nc2nc3ccccc3[nH]2)c(O)cc1O | inconclusive: 28.2 µM [quencher, side channel, partial curve]
Cc1ccc(NC(NC(=O)c2cccs2)C(Cl)(Cl)Cl)cc1 (centres undefined) | inconclusive: 11.2 µM [quencher, side channel, partial curve]
O=C(Nc1ccc(OC(F)F)c(Cl)c1)c1ccccn1 | inactive
Nc1c(Cl)ncnc1N/N=C/c1ccccn1 | inactive
COc1ccc(N(C(=O)Cc2cccs2)C(C(=O)NC2CCCC2)c2ccncc2)cc1OC (centres undefined) | inactive
OCC1(CCCc2ccccc2)CCN(Cc2ccc(F)cc2)CC1 | inconclusive: 10 µM [inhibitor, partial curve]
COc1ccc(OC)c(/C=N/NC(=O)CCCC(=O)Nc2cccc(Br)c2)c1 | inactive
COc1ccc(C2C(C(=O)N3CCN(c4ccccc4)CC3)c3ccccc3C(=O)N2C)cc1OC (centres undefined) | inconclusive: 14.1 µM [inhibitor, partial curve]
CCOC(=O)N1CCN(C(=O)CSCc2nc(-c3ccccc3F)oc2C)CC1 | inconclusive: 20 µM [inhibitor, single point]
O=C(Nc1ccc(Cl)c(Cl)c1)Nc1ccccc1O | inconclusive: 11.2 µM [quencher, side channel, partial curve]

SMILES | Potency
Cc1cc(C(=O)N2CCC(Cc3ccccc3)CC2)ccc1[N+](=O)[O-] | inconclusive: 10 µM [fluorescent, side channel, partial curve]
COc1ccc(C(NC(=O)c2ccc(=O)[nH]c2)C(=O)Nc2ccc(C(C)C)cc2)cc1 (centres undefined) | inconclusive: 22.4 µM [fluorescent, side channel, single point]
Cc1cc(NS(=O)(=O)c2ccc(NC(=O)CCCOc3ccccc3C)cc2)nc(C)n1 | inconclusive: 25.1 µM [quencher, side channel, single point]
O=C(Nc1ccc(Cl)cc1)Nc1nnc(SCc2ccccc2)s1 | inconclusive: 28.2 µM [inhibitor, partial curve]
CCOC(=O)C1(CCCc2ccccc2)CCN(C(=O)c2ccoc2)CC1 | inconclusive: 7.94 µM [fluorescent, side channel, partial curve]
O=C(Nc1nnc(SCc2ccccc2)s1)c1cccc([N+](=O)[O-])c1 | inconclusive: 25.1 µM [quencher, side channel, partial curve]
Cc1onc(-c2ccccc2)c1C(=O)NNC(=S)NC(=O)c1ccc(F)cc1 | inconclusive: 39.8 µM [quencher, side channel, single point]
CCCN1C(=O)/C(=C\C=C2/Sc3ccccc3N2CCO)SC1=S | inconclusive: 3.16 µM [fluorescent, side channel, full curve]
Cc1cc2nc(CSc3ccccc3)cc(=O)n2[nH]1 | inconclusive: 8.91 µM [quencher, full curve, poor fit]
COC(=O)c1ccc(/C=N/OCC(=O)Nc2cc(F)ccc2F)cc1 | inconclusive: 15.8 µM [inhibitor, single point]
Cc1ccc(NC(=S)NNC(=O)c2ccccc2O)c(C)c1 | inconclusive: 11.2 µM [quencher, side channel, partial curve]
COc1ccc(/C=C(/C#N)C(=O)Nc2cc(C)ccc2C)cc1C(=O)O | inactive
CCOC(=O)C1(CCOc2ccccc2)CCN(Cc2ccc(C)o2)CC1 | inconclusive: 0.631 µM [fluorescent, side channel, full curve, poor fit]
O=C(O)CN1C(=O)CSC1=S | inconclusive: 2.82 µM [fluorescent, side channel, full curve]
COc1ccc(-c2csc(NC(=O)c3ccc(S(=O)(=O)N4CCc5ccccc5C4)cc3)n2)cc1 | inconclusive: 11.2 µM [inhibitor, partial curve]
O=C(CN1C(=O)COc2ccccc21)N1CCCc2ccccc21 | inconclusive: 1.78 µM [inhibitor, full curve, poor fit]
O=c1c2cccc3c(N4CCOCC4)ccc(c32)c2nc3ccccc3n12 | inconclusive: 39.8 µM [inhibitor, single point]
CCN(CC)c1ccc(/C=C(\C#N)c2nc(-c3cccs3)c(NC(C)=O)s2)cc1 | inconclusive: 7.94 µM [quencher, side channel, partial curve]
CCCCC(=O)Nc1ccc(C(=O)Nc2ccc(OC)cc2[N+](=O)[O-])cc1 | inconclusive: 11.2 µM [quencher, side channel, partial curve]
Cc1ccccc1S(=O)(=O)Cc1ccc(C(=O)NCCN(CC(C)C)CC(C)C)o1 | inconclusive: 31.6 µM [inhibitor, partial curve]

SMILES | Potency
Cc1cc(C)cc(N=c2c([N+](=O)[O-])nn(-c3cccc(Cl)c3)n2O)c1 | inconclusive: 20 µM [quencher, side channel, partial curve]
COc1ccc(C(=O)Nc2ccc(NC(=O)c3ccco3)cc2)cc1 | inconclusive: 28.2 µM [fluorescent, side channel, single point]
CN1CCc2c(sc3c2C(=O)NC(c2ccco2)N3)C1 (centres undefined) | inconclusive: 22.4 µM [inhibitor, single point]
CCOC(=O)/C(=C\C=C1/Sc2ccccc2N1CC)C(C)=O | inactive
Fc1ccccc1-c1nc(-c2ccncc2)no1 | inactive
O=C(Nc1ccccc1)c1cc2c(=O)c3ccccc3oc2nc1C(F)(F)F | inconclusive: 39.8 µM [inhibitor, single point]
CSc1nnc(-c2cc(Br)ccc2N=Cc2c(C)[nH]n(-c3ccccc3)c2=O)c(=O)[nH]1 | inconclusive: 17.8 µM [quencher, side channel, partial curve]
Cc1ccc2c(CC(=O)Nc3c(C)n(C)n(-c4ccccc4)c3=O)coc2c1 | inconclusive: 39.8 µM [inhibitor, partial curve, poor fit]
O=C1C(Cl)=C(Nc2ccccc2O)C(=O)N1CCc1ccccc1 | inconclusive: 17.8 µM [quencher, side channel, single point]
COC(=O)c1ccc(NC(=O)c2ccc3nc(C)sc3c2)cc1 | inconclusive: 0.631 µM [inhibitor, full curve, poor fit]
O=c1oc2c(CN3CCCCCC3)c(O)ccc2cc1-c1nc2ccccc2[nH]1 | inconclusive: 6.31 µM [quencher, side channel, partial curve]
CCc1ccc(/C=C2/SC(=S)N(CCC(=O)Nc3ccc(C(=O)O)cc3)C2=O)cc1 | inconclusive: 39.8 µM [fluorescent, single point]
O=C(Nc1ccccc1C(F)(F)F)N1CCCCCC1 | inconclusive: 14.1 µM [inhibitor, partial curve]
COc1cccc(NC(=O)Cn2nnc(-c3ccccc3N)n2)c1 | inconclusive: 25.1 µM [quencher, side channel, single point]
Cc1ccc(-c2ccc(C3C(C#N)=C(N)Oc4n[nH]c(C)c43)o2)cc1 (centres undefined) | inconclusive: 20 µM [quencher, side channel, partial curve]
CCn1c(/C=C/c2c(C)[nH]c3ccccc23)nc2ccccc2c1=O | inconclusive: 10 µM [quencher, side channel, partial curve]
Cc1ccc(-c2nc(S(=O)(=O)c3ccc(C)cc3)c(N(C)C)o2)cc1 | inconclusive: 15.8 µM [fluorescent, side channel, partial curve]
Cc1ccc(S(=O)(=O)N(C)c2ccc(OCC(=O)Nc3nc4c(ccc5ccccc54)s3)cc2)cc1 | inconclusive: 11.2 µM [inhibitor, partial curve]
NS(=O)(=O)c1ccc(CCNC(=O)/C=C/c2ccc([N+](=O)[O-])cc2)cc1 | inconclusive: 28.2 µM [quencher, side channel, single point]
